Laboratory results reported in the antibiotic and cytotoxicity screens of Wong et al. (2023).
The other results are listed elsewhere or left out.

Each molecule was assayed on HepG2 (assay: cytotoxicity call (relative viability < 0.9)). Conditions: 10 µM.

| Structure (SMILES) | cytotoxicity call |
| --- | --- |
| O=P(O)(O)C(O)(Cn1ccnc1)P(=O)(O)O | inactive |
| C[C@@H]1CN([C@@H](C)CO)C(=O)CCCn2cc(nn2)CO[C@@H]1CN(C)Cc1cccc2c1OCCCO2 | inactive |
| O=C(C[C@@H]1C[C@@H]2c3cc(NS(=O)(=O)c4ccc(F)cc4)ccc3O[C@@H]2[C@@H](CO)O1)NCc1ccncc1 | inactive |
| CN1CCN(C(=O)C[C@@H]2CC[C@@H]3[C@H](COc4ccc(NC(=O)C5CCCCC5)cc4C(=O)N3C)O2)CC1 | inactive |
| COc1ccc(C(=O)Nc2cccc(CN3C(=O)[C@]4(O[C@H](CC(=O)N(CCO)Cc5ccccc5)[C@@H]([Si](C)(C)c5ccc(OC)cc5)[C@@H]4C)c4ccccc43)c2)cc1 | active |
| N[C@@H]1CCCN(c2c(Br)cnc3[nH]cc(NC(=O)C4CC4)c23)C1 | inactive |
| CCOC(=O)c1c[nH][nH]c1=O | inactive |
| C[C@@H]1CN([C@H](C)CO)C(=O)c2cc(NC(=O)CCN3CCOCC3)ccc2O[C@H]1CN(C)S(=O)(=O)c1cn(C)cn1 | inactive |
| Cc1ccc(S(=O)(=O)N(C)C[C@@H]2OCCCC[C@H](C)Oc3ccc(NC(=O)Cc4ccccc4)cc3C(=O)N([C@@H](C)CO)C[C@H]2C)cc1 | inactive |
| CCCCCCc1ccc(O)cc1O | active |
| Cc1cccc(NC(=O)C[C@H]2NCCNC2=O)c1 | inactive |
| COC(=O)Nc1c(C)cc(C)cc1C | inactive |
| COCCOC(=O)N1C(=O)[C@@]2(c3cc(C#CC4=CCCCC4)ccc31)[C@H](c1ccccc1OCCO)N1[C@H](c3ccccc3)[C@H](c3ccccc3)OC(=O)[C@H]1[C@@H]2C(=O)NC[C@H](O)c1ccccc1 | inactive |
| CC(=O)N1[C@@H]2Cn3c(ccc(-c4ccccc4)c3=O)[C@H]1[C@@H](C(=O)N1CCN(C)CC1)[C@@H]2CO | inactive |
| C/C=C/C(=O)c1cc(Cl)ccc1O | inactive |
| O=C(NC1(c2ccccc2)CC1)c1c(CN2CCC(N3CCCCC3)CC2)c(-c2cccc(C(F)(F)F)c2)nc2cc(Br)ccc12 | active |
| CC(C)NC(=O)N(C)C[C@@H]1OCCCC[C@@H](C)Oc2ccc(NC(=O)CCCCCC(=O)Nc3ccccc3N)cc2C(=O)N([C@H](C)CO)C[C@H]1C | inactive |
| Cn1nnnc1SCC1=C(C(=O)[O-])N2C(=O)C(NC(=O)C(O)c3ccccc3)C2SC1.[Na+] (centres undefined) | inactive |
| COc1ccccc1NC(=O)N(C)C[C@H]1Oc2cc(Br)ccc2S(=O)(=O)N([C@H](C)CO)C[C@H]1C | inactive |
| O=C(C[C@H]1CC[C@H]2[C@@H](COC[C@@H](O)CN2S(=O)(=O)c2cccc(Cl)c2)O1)N1CCOCC1 | inactive |
| O=C(O)CNC(=O)C(=O)O | active |
| CCS(=O)(=O)Nc1ccc2c(c1)CC(=O)N2 | inactive |
| C[C@H](C(=O)N(C)C[C@H]1OCc2ccccc2-c2c(n(C)c3ccccc23)C(=O)N([C@@H](C)CO)C[C@@H]1C)c1ccccc1 | active |
| COc1ccc(S(=O)(=O)N(C)C[C@@H]2OCCCC[C@@H](C)Oc3ccc(NS(=O)(=O)c4cn(C)cn4)cc3C(=O)N([C@@H](C)CO)C[C@@H]2C)cc1 | inactive |
| Cc1noc(C)c1S(=O)(=O)N(C)C[C@H]1OCCCC[C@H](C)Oc2ccc(NC(=O)Nc3ccc(C(F)(F)F)cc3)cc2C(=O)N([C@@H](C)CO)C[C@@H]1C | active |
| O=C(C[C@@H]1CC[C@H]2[C@@H](COC[C@@H](O)CN2Cc2cc(F)ccc2F)O1)N[C@@H]1CCN(Cc2ccccc2)C1 | inactive |
| Cc1ccc(S(=O)(=O)Nc2ccc3c(c2)C(=O)N([C@@H](C)CO)C[C@@H](C)[C@@H](CN(C)Cc2ccccc2)OCCCC[C@@H](C)O3)cc1 | inactive |
| C[C@H](CO)N1C[C@H](C)[C@H](CN(C)C(=O)Nc2ccc(F)cc2)OCCCC[C@H](C)Oc2ccc(NC(=O)c3ccncc3)cc2C1=O | inactive |
| O=c1c(-c2ccc(O)cc2)coc2cc(O)cc(O)c12 | inactive |

What follows are molecules tested on S. aureus RN4220 (assay: growth inhibition call (relative growth <= 0.2)). Conditions: 50 µM.

| Structure (SMILES) | growth inhibition call |
| --- | --- |
| COc1ccc(CN(C)C[C@@H]2OCCCC[C@H](C)Oc3ccc(NC(=O)Cc4ccccc4)cc3C(=O)N([C@H](C)CO)C[C@H]2C)cc1 | inactive |
| C[C@@H]1CCCCO[C@H](CN(C)S(=O)(=O)c2ccccc2)[C@H](C)CN([C@H](C)CO)C(=O)c2cc(NC(=O)Nc3ccccc3)ccc2O1 | inactive |
| COc1ccc(S(=O)(=O)Nc2ccc3c(c2)C(=O)N([C@H](C)CO)C[C@H](C)[C@H](CN(C)S(=O)(=O)c2ccccc2)O3)cc1 | inactive |
| OCC1OC(Oc2ccc(O)cc2)C(O)C(O)C1O (centres undefined) | inactive |
| O=C1CSC(=Nc2nccs2)N1 | inactive |
| N[C@H](CSCCB(O)O)C(=O)O | inactive |
| COc1ccc(S(=O)(=O)N(C)C[C@@H]2OCCCC[C@H](C)Oc3ccc(NS(=O)(=O)c4ccc(Cl)cc4)cc3C(=O)N([C@@H](C)CO)C[C@@H]2C)cc1 | inactive |
| COc1ccc(NC(=O)Nc2cccc3c2O[C@H](CN(C)Cc2ccc(Cl)c(Cl)c2)[C@H](C)CN([C@@H](C)CO)C3=O)cc1 | inactive |
| COc1ccc(S(=O)(=O)Nc2ccc3c(c2)C(=O)N([C@H](C)CO)C[C@H](C)[C@H](CN(C)C(=O)Nc2c(C)noc2C)OCCCC[C@H](C)O3)cc1 | inactive |
| COc1ccccc1NC(=O)N(C)C[C@@H]1Oc2cc(Br)ccc2S(=O)(=O)N([C@@H](C)CO)C[C@H]1C | inactive |
| COc1ccc(NC(=O)N(C)C[C@@H]2OCCCC[C@@H](C)Oc3ccc(NC(=O)Nc4ccccc4)cc3C(=O)N([C@@H](C)CO)C[C@@H]2C)cc1 | inactive |
| O=P(O)(O)C(O)(Cn1ccnc1)P(=O)(O)O | inactive |
| C[C@@H]1CN([C@@H](C)CO)C(=O)CCCn2cc(nn2)CO[C@@H]1CN(C)Cc1cccc2c1OCCCO2 | inactive |
| O=C(C[C@@H]1C[C@@H]2c3cc(NS(=O)(=O)c4ccc(F)cc4)ccc3O[C@@H]2[C@@H](CO)O1)NCc1ccncc1 | inactive |
| CN1CCN(C(=O)C[C@@H]2CC[C@@H]3[C@H](COc4ccc(NC(=O)C5CCCCC5)cc4C(=O)N3C)O2)CC1 | inactive |
| COc1ccc(C(=O)Nc2cccc(CN3C(=O)[C@]4(O[C@H](CC(=O)N(CCO)Cc5ccccc5)[C@@H]([Si](C)(C)c5ccc(OC)cc5)[C@@H]4C)c4ccccc43)c2)cc1 | inactive |
| N[C@@H]1CCCN(c2c(Br)cnc3[nH]cc(NC(=O)C4CC4)c23)C1 | inactive |
| CCOC(=O)c1c[nH][nH]c1=O | inactive |
| C[C@@H]1CN([C@H](C)CO)C(=O)c2cc(NC(=O)CCN3CCOCC3)ccc2O[C@H]1CN(C)S(=O)(=O)c1cn(C)cn1 | inactive |
| Cc1ccc(S(=O)(=O)N(C)C[C@@H]2OCCCC[C@H](C)Oc3ccc(NC(=O)Cc4ccccc4)cc3C(=O)N([C@@H](C)CO)C[C@H]2C)cc1 | inactive |

| Structure (SMILES) | growth inhibition call |
| --- | --- |
| CCCCCCc1ccc(O)cc1O | active |
| Cc1cccc(NC(=O)C[C@H]2NCCNC2=O)c1 | inactive |
| COC(=O)Nc1c(C)cc(C)cc1C | inactive |
| COCCOC(=O)N1C(=O)[C@@]2(c3cc(C#CC4=CCCCC4)ccc31)[C@H](c1ccccc1OCCO)N1[C@H](c3ccccc3)[C@H](c3ccccc3)OC(=O)[C@H]1[C@@H]2C(=O)NC[C@H](O)c1ccccc1 | inactive |
| CC(=O)N1[C@@H]2Cn3c(ccc(-c4ccccc4)c3=O)[C@H]1[C@@H](C(=O)N1CCN(C)CC1)[C@@H]2CO | inactive |
| C/C=C/C(=O)c1cc(Cl)ccc1O | inactive |
| O=C(NC1(c2ccccc2)CC1)c1c(CN2CCC(N3CCCCC3)CC2)c(-c2cccc(C(F)(F)F)c2)nc2cc(Br)ccc12 | inactive |
| CC(C)NC(=O)N(C)C[C@@H]1OCCCC[C@@H](C)Oc2ccc(NC(=O)CCCCCC(=O)Nc3ccccc3N)cc2C(=O)N([C@H](C)CO)C[C@H]1C | inactive |
| Cn1nnnc1SCC1=C(C(=O)[O-])N2C(=O)C(NC(=O)C(O)c3ccccc3)C2SC1.[Na+] (centres undefined) | active |
| COc1ccccc1NC(=O)N(C)C[C@H]1Oc2cc(Br)ccc2S(=O)(=O)N([C@H](C)CO)C[C@H]1C | inactive |
| O=C(C[C@H]1CC[C@H]2[C@@H](COC[C@@H](O)CN2S(=O)(=O)c2cccc(Cl)c2)O1)N1CCOCC1 | inactive |
| O=C(O)CNC(=O)C(=O)O | inactive |
| CCS(=O)(=O)Nc1ccc2c(c1)CC(=O)N2 | inactive |
| C[C@H](C(=O)N(C)C[C@H]1OCc2ccccc2-c2c(n(C)c3ccccc23)C(=O)N([C@@H](C)CO)C[C@@H]1C)c1ccccc1 | inactive |
| COc1ccc(S(=O)(=O)N(C)C[C@@H]2OCCCC[C@@H](C)Oc3ccc(NS(=O)(=O)c4cn(C)cn4)cc3C(=O)N([C@@H](C)CO)C[C@@H]2C)cc1 | inactive |
| Cc1noc(C)c1S(=O)(=O)N(C)C[C@H]1OCCCC[C@H](C)Oc2ccc(NC(=O)Nc3ccc(C(F)(F)F)cc3)cc2C(=O)N([C@@H](C)CO)C[C@@H]1C | inactive |
| O=C(C[C@@H]1CC[C@H]2[C@@H](COC[C@@H](O)CN2Cc2cc(F)ccc2F)O1)N[C@@H]1CCN(Cc2ccccc2)C1 | inactive |
| Cc1ccc(S(=O)(=O)Nc2ccc3c(c2)C(=O)N([C@@H](C)CO)C[C@@H](C)[C@@H](CN(C)Cc2ccccc2)OCCCC[C@@H](C)O3)cc1 | inactive |
| C[C@H](CO)N1C[C@H](C)[C@H](CN(C)C(=O)Nc2ccc(F)cc2)OCCCC[C@H](C)Oc2ccc(NC(=O)c3ccncc3)cc2C1=O | inactive |
| O=c1c(-c2ccc(O)cc2)coc2cc(O)cc(O)c12 | inactive |
